From publication PMC4336329 (PLoS ONE, 2015)
About 2,200 (0.71%) of roughly 310,000 compounds showed an effect of 50% or more. The effect is printed as a negative number. The list shows a part of the results.

Target: human ether-à-go-go-related gene (hERG) potassium channel (human, UniProt Q12809)
Experiment: primary screen, population patch clamp on CHO cells stably expressing hERG

Chain of human ether-à-go-go-related gene (hERG) potassium channel (Q12809 whole entry, looked up): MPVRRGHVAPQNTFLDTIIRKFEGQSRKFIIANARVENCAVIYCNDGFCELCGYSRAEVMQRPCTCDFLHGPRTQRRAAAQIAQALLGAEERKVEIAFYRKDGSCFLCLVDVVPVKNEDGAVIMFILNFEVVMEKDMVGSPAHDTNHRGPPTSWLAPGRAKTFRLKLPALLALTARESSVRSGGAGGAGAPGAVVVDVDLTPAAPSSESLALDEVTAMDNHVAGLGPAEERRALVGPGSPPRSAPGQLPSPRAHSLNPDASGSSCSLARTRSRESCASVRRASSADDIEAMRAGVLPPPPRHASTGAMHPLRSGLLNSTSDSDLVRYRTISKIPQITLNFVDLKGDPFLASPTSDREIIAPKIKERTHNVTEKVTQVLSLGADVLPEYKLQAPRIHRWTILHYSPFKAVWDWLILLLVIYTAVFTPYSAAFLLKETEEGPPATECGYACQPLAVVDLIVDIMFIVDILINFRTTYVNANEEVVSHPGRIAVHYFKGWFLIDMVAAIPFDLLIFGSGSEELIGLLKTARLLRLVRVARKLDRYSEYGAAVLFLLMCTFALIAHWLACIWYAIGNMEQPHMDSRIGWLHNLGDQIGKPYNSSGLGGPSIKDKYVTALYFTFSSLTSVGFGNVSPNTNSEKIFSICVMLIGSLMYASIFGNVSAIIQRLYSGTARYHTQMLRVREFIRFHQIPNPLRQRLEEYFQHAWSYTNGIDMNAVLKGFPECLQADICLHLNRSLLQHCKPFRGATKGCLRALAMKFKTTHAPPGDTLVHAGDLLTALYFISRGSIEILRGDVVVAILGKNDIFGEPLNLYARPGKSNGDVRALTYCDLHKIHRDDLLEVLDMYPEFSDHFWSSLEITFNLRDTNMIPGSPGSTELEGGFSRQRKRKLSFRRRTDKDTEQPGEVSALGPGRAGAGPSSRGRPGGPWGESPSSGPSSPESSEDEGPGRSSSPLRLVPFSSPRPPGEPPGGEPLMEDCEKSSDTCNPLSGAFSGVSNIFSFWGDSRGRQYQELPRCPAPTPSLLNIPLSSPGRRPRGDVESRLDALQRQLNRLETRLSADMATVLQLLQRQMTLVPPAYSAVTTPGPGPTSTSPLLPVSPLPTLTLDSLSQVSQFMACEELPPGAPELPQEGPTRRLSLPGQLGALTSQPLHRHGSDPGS

Compound	hERG current change (%, negative = inhibition) at 1uM
O=C(NCCCN1CCCC1=O)C1CCN(S(=O)(=O)c2cccc(C(F)(F)F)c2)CC1	23.6%
CC(=O)C1=C(O)C(=O)N(Cc2cccnc2)C1c1ccc(C(C)C)cc1 (stereo not drawn)	11.3%
CC(=O)Oc1ccc(/C=C/c2nc3ccccc3c(=O)o2)cc1	13.7%
Cn1c(/C(C#N)=C(\O)CN2CCN(Cc3ccccc3)CC2)nc2ccccc21	-20%
COc1ccc(-c2cc(C(F)(F)F)nc(SCC(N)=O)n2)cc1	10.8%
Cc1ccc(NC(=O)C(=O)c2cn(CC(=O)N3CCCCC3)c3ccccc23)cc1	1.63%
Cc1ccc2[nH]c(=O)cc(C(=O)OC(C)C)c2c1	15.3%
O=C(CCCOc1ccc(Cl)cc1Cl)Nc1ccccc1C(=O)O	4.57%
CC1CC(C)CN(C(=O)CCNC(=O)c2ccccc2Cl)C1 (stereo not drawn)	4.67%
CCc1nnc(NC(=O)CSc2nc3cc(OC)ccc3cc2C)s1	5.79%
COC(=O)c1ccc(OC(=O)c2ccc(OC)c(OC)c2)c(OC)c1	17.1%
Cc1ccc(-n2ccn(CC(=O)NCCc3ccccc3)c(=O)c2=O)cc1C	7.22%
Cc1ccc(C(=O)CN2C(=O)NC3(CCc4ccccc43)C2=O)c(C)c1 (stereo not drawn)	3.35%
COc1ccc(C(C)=O)cc1CS(=O)(=O)CC(=O)NCCc1c[nH]c2ccccc12	2.65%
O=C(O)c1ccc(COc2ccccc2/C=C2\NC(=O)N(Cc3ccc(F)cc3)C2=O)cc1	15.6%
COc1ccccc1C(=O)Nc1c(C(=O)N(CCN(C)C)Cc2ccco2)oc2ccccc12	-27.4%
O=C1CC(N2CCN(c3cccc(C(F)(F)F)c3)CC2)C(=O)N1c1ccccc1 (stereo not drawn)	20.4%
CC(=O)Nc1ccc(OCC(O)CN2CCN(c3ccc(C)c(Cl)c3)CC2)cc1 (stereo not drawn)	-2.33%
O=C(NC1CC1)C1=C[C@H](c2ccc(C(F)(F)F)cc2)C[C@H](OCc2ccc(CO)cc2)O1	9.86%
NS(=O)(=O)c1ccc(CCNC(=O)C(=O)NCC2OCCN2S(=O)(=O)c2ccc(F)cc2)cc1 (stereo not drawn)	22.2%
COc1ccc(CC(=O)Nc2sc3c(c2C(N)=O)CCCC3)cc1OC	10.7%
O=C1/C(=C/c2cccs2)Cc2ccccc21	13.1%

Compound	hERG current change (%, negative = inhibition) at 1uM
CSCC[C@H](N)C(=O)N1CCC(C(=O)N[C@H](C)C(=O)Nc2ccc(C(C)C)cc2)CC1	16.3%
COc1cc(/C=C2\SC(=Nc3ccc(O)cc3)NC2=O)cc(OC)c1O	0.574%
O=C(c1nsc(Cl)c1Cl)N1CCCCC1	4.93%
Cc1ccc(C)c(S(=O)(=O)N2CCN(C(=O)c3n[nH]c(=O)c4ccccc34)CC2)c1	4.79%
COc1cc(CNCc2ccccn2)ccc1OCC(=O)NC1CCCCC1.Cl	10.1%
O.O=c1c(=O)n(O)c2ccccc2n1O	6.07%
COc1ccc(C(C)=O)cc1COC(=O)c1ccc(N)c([N+](=O)[O-])c1	25.3%
CC(=O)N1CCN(S(=O)(=O)c2ccc(Cl)cc2F)CC1	11.1%
COc1cccc(C(=O)/C=C/Nc2ccc(NC(C)=O)cc2)c1	6.76%
COC(=O)c1cnc(SCc2ccc(C)cc2)n1C	-6.36%
CC(=O)Nc1cccc(/C(C)=N/NS(=O)(=O)c2ccc(C)cc2)c1	14.4%
Cc1c(C(=O)N2CCOCC2)sc(NC(=O)C(C)C)c1C#N	16.1%
Cc1nn(-c2ccccc2)c(C)c1-c1cc(C(=O)N/N=C/c2ccc(O)cc2)[nH]n1	12.2%
S=c1[nH]nc(COc2ccc(Cl)cc2)n1C1CCCCC1	12.3%
CCN1CCc2c(sc(NC(=O)c3ccc(S(=O)(=O)N(CC)c4ccccc4)cc3)c2C(N)=O)C1	9.48%
COc1cccc(-n2nc3c(=S)[nH]nc(C)c3c2C)c1	13.7%
Cc1ccc(/C=C/C(=O)Nc2cccnc2)o1	-0.271%
CC(C)CC(=O)NS(=O)(=O)c1ccc(NS(C)(=O)=O)cc1	9.38%
CC(=O)C1=C(O)C(=O)N(c2ccc(O)cc2)C1c1ccc(Cl)cc1 (stereo not drawn)	17.5%
CCOC(=O)C1CCN(C(=S)Nc2cc(C)ccc2C)CC1	5.31%
Cc1cccc2nc(-c3ccco3)c(Nc3ccc4c(c3)OCO4)n12	5.48%
Fc1ccc2nc(C3CCN(Cc4nc(CC5CC5)no4)CC3)[nH]c2c1	-22%

Compound	hERG current change (%, negative = inhibition) at 1uM
CCC(C)OC(=O)C1=C(C)NC(=O)CC1c1ccccc1OC (stereo not drawn)	4.31%
O=C(CSc1ccc(-c2cccc([N+](=O)[O-])c2)nn1)NCc1ccccc1	8.35%
CCc1nnc(SCc2ccc([N+](=O)[O-])cc2)nc1CC	-4.7%
COc1ccc(/C=N/NC(=O)c2ccc(CSc3nncn3C)cc2)cc1OC	8.59%
COCC(=O)N1CCN(c2cccc(Cl)c2)CC1	0.951%
CCN(CC(=O)Nc1ccc(OC)c(Cl)c1)CC(=O)NC(C)C	6.63%
CC(C)CCn1nnnc1CN1CCN(C(=O)c2ccco2)CC1.Cl	18.9%
COC(=O)c1cnn2c(C(F)(F)F)cc(-c3ccc(F)cc3)nc12	-4.17%
CCOC(=O)CN(Cc1sccc1C)C(=O)Nc1ccc(OCC)cc1	7.78%
CC1=CC(C)(C)N(C(=O)CSc2nnc(-c3ccc(C)cc3)o2)c2ccc(C)cc21	8.68%
CC(=O)Nc1ccnc(-c2cccnc2)n1	7.56%
C/C=C/C=C/C(=O)OC(C)C(=O)Nc1cc([N+](=O)[O-])ccc1OC (stereo not drawn)	3.97%
Cn1c(=O)n(C)c2cc([N+](=O)[O-])c(N3CCN(S(C)(=O)=O)CC3)cc21	15.9%
COCCNc1ccc(N2C(=O)CCCC2=O)cc1[N+](=O)[O-]	15.4%
COCC(C)NC(=O)c1noc2c1CCc1cc(OC)ccc1-2 (stereo not drawn)	-2.64%
CN1/C(=C\C(=O)C[n+]2cccc(C(N)=O)c2)C(C)(C)c2ccccc21.[Cl-]	18.9%
COC(=O)c1cc(S(=O)(=O)N(C)C2CCCCC2)oc1C	10.3%
Cc1ccc(C)c(-c2nc3ccc(N)cc3[nH]2)c1	-4.27%
O=C(O)c1ccc(N2C(=O)/C(=C/C=C/c3ccccc3)SC2=S)cc1	4.88%
O=C(Nc1cccc(O)c1)C(Cc1ccccc1)N1C(=O)c2cccc3cccc(c23)C1=O (stereo not drawn)	6.05%
Cc1ccc(-c2csc(NC(=O)c3ccc(F)cc3)c2C(=O)O)cc1	16%
Cc1ccc(-c2nc(Nc3ccc(O)cc3)c3ccccc3n2)cc1	11.5%

Compound	hERG current change (%, negative = inhibition) at 1uM
CCOCCCNC(=O)CN1CCN(S(=O)(=O)c2ccc3c(c2)CCC3)CC1	13.1%
Cc1ccc(CNCC(=O)Nc2ccc(N3CCOCC3)cc2)cc1.O=C(O)C(=O)O	10.5%
O=C1CC(C(F)(F)F)=NN1	15.9%
CC(C)c1ccc(-c2cc(C(=O)NN3CCN(C)CC3)c3ccccc3n2)cc1	10.1%
CS(=O)(=O)c1ccccc1-c1nc(-c2cccc(Cl)c2)no1	5.57%
CCN(CCCNC(=O)CCn1c(=S)[nH]c2cc3c(cc2c1=O)OCO3)c1cccc(C)c1	11.5%
Cc1ccc2cc(C)c3nnc(SCC(=O)NCc4ccco4)n3c2c1	-5.71%
Cc1nnc(SCC(=O)N2CCN(S(=O)(=O)c3ccc(Cl)cc3)CC2)n(N)c1=O	-1.36%
CN(C)S(=O)(=O)N1CCC(c2ccc(F)cc2)C(COc2ccc3c(c2)OCO3)C1 (stereo not drawn)	12.4%
Cc1cc(C)c2c(N)c(C(=O)Nc3ccc([N+](=O)[O-])cc3)sc2n1	17.4%
O=C(O)c1cccc(N2CCCCS2(=O)=O)c1	12.5%
OCCC1CN(Cc2cc(F)ccc2-n2cccn2)CCN1C1CCCC1 (stereo not drawn)	3.09%
O=C(Cn1cc(C(=O)C2CC2)c2ccccc21)NC1CCCC1	10.9%
O=C(Nc1ccc2ccccc2n1)Nc1ccccc1F	10.3%
CCOCN(C(=O)Cn1cnc2ccccc21)c1c(C)cccc1CC	9.93%
CCCn1c(NC(=O)CN2C(=O)NC3(CCCCC3)C2=O)nc2ccccc21	-7.25%
COc1cc(C2C3=C(CCCC3=O)OC3=C2C(=O)CCC3)ccc1OCC(=O)Nc1ccccc1	14.8%
CCOc1ccc(-n2c(C)cc(C(=O)NS(=O)(=O)c3ccc(C)cc3)c2C)cc1	-3.98%
Cc1ccc2c(c1)nnc1nnc(SCC(=O)O)n12	10.1%
Cc1ccc(NC(=O)CCSc2nnc(-c3ccco3)o2)cc1	9.02%
COC(=O)c1ccc(-n2c(C)cc(C(=O)CSc3cccc[n+]3[O-])c2C)cc1	17.8%
